Structures are written as SMILES. The whole screen tested about 39,000 compounds, of which about 220 (0.56%) showed activity. This is one part of the list.
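Further: static incubation at 37 °C against the wild-type strain, values averaged over two biological replicates.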

In the experiment the test system is Escherichia coli K-12 BW25113. Put plainly: relative growth (OD600 normalised to plate interquartile mean) (fraction); higher = less growth inhibition, active = 0.2 or less. The note with it: 50 µM; LB; incubation time: overnight (16-24 h).
Turning to `Cc1ccc(S(=O)(=O)N(C)C[C@H]2OCCCC[C@H](C)Oc3ccc(NC(=O)Nc4ccc5c(c4)OCO5)cc3C(=O)N([C@H](C)CO)C[C@@H]2C)cc1`, the relative growth was inactive: 1.07. `CC(C)NC(=O)Nc1ccc2c(c1)C(=O)N([C@@H](C)CO)C[C@H](C)[C@@H](CN(C)S(=O)(=O)c1ccccc1)O2`: the relative growth is inactive: 0.98. As for `C[C@H](CO)N1C[C@H](C)[C@H](CN(C)C(=O)Nc2ccc(C(F)(F)F)cc2)OCCCC[C@H](C)Oc2ccc(NS(C)(=O)=O)cc2C1=O`, the relative growth is inactive: 0.952.

For the molecule `COc1ccccc1S(=O)(=O)N[C@@H]1CC[C@@H](CCNC(=O)C2CC2)O[C@@H]1CO`, the relative growth was inactive: 1.01. Consider `Cc1ccc(S(=O)(=O)N(C)C[C@H]2Oc3ccc(NC(=O)CCN4CCOCC4)cc3CC(=O)N([C@H](C)CO)C[C@@H]2C)cc1`, for which the relative growth was inactive: 1.01.

For the molecule `Cc1noc(C)c1NC(=O)N(C)C[C@@H]1Oc2ccc(NS(=O)(=O)c3c(C)noc3C)cc2CC(=O)N([C@@H](C)CO)C[C@@H]1C`, the relative growth was inactive: 1.04. With `O=C(CCCCCCC(=O)NO)NO`, the relative growth was inactive: 0.961. As to `Cc1cc([N+](=O)[O-])nn1CC(=O)NC(C)C`, the relative growth is inactive: 1.

`Cc1ccc(S(=O)(=O)N[C@@H](Cc2ccccc2)C(=O)NCCn2cc(-c3ccc(C(=O)NO)s3)nn2)cc1`: the relative growth was inactive: 1.01. In the case of `COc1ccc(NC(=O)Nc2ccc3c(c2)C(=O)N([C@@H](C)CO)C[C@H](C)[C@@H](CN(C)S(=O)(=O)c2ccccc2)OCCCC[C@@H](C)O3)cc1`, the relative growth is inactive: 1.07. For `C[C@@H]1CCCCO[C@@H](CN(C)S(=O)(=O)c2ccccc2)[C@@H](C)CN([C@@H](C)CO)C(=O)c2cc(NC(=O)Nc3ccccc3)ccc2O1`, the relative growth is inactive: 1.04. With `O=C1c2c(O)cc(O[C@@H]3O[C@H](CO)[C@@H](O)[C@H](O)[C@@H]3O)cc2O[C@@H](c2ccc(O)cc2)[C@@H]1O` the figure was inactive: 1.05; with `C[C@H]1CCCCO[C@@H](CN(C)C(=O)Nc2ccccc2)[C@@H](C)CN([C@@H](C)CO)C(=O)c2cc(NS(=O)(=O)c3ccc(Cl)cc3)ccc2O1`, inactive: 1.01; with `C[C@@H]1CCCCO[C@@H](CN(C)Cc2ccc(Cl)c(Cl)c2)[C@@H](C)CN([C@@H](C)CO)C(=O)c2cc(NC(=O)CCC(F)(F)F)ccc2O1`, inactive: 0.799. Consider `C[C@H](CO)N1C[C@H](C)[C@@H](CN(C)CC2CCCCC2)Oc2ccc(NC(=O)Cn3cnnn3)cc2CC1=O`, for which the relative growth is inactive: 0.944. As to `COc1ccc(S(=O)(=O)Nc2ccc3c(c2)C(=O)N([C@@H](C)CO)C[C@@H](C)[C@@H](CN(C)Cc2ccc(Cl)c(Cl)c2)OCCCC[C@@H](C)O3)cc1`, the relative growth is inactive: 1.02.

Regarding `Cc1noc(C)c1S(=O)(=O)Nc1ccc2c(c1)C(=O)N([C@@H](C)CO)C[C@H](C)[C@@H](CN(C)C(=O)Nc1cccc3ccccc13)OCCCC[C@H](C)O2`, the relative growth was inactive: 1.02. For the molecule `CCCn1cnnc1CNC`, the relative growth was inactive: 0.935. On to `C[C@@H]1CCCCO[C@@H](CN(C)S(=O)(=O)c2ccccc2)[C@@H](C)CN([C@H](C)CO)C(=O)c2cc(NC(=O)Nc3cccc4ccccc34)ccc2O1`, for which the relative growth was inactive: 1.02. With `CC(C)(C)OC(=O)C[C@@H]1CC=CC[C@H](CC(=O)N[C@@H](CO)Cc2ccccc2)C(=O)N2CCC[C@@H]2COC1=O`, the relative growth is inactive: 1.03. With `O=C(NCc1ccco1)c1nc2ncccn2n1` the figure was inactive: 1.01; with `Cc1ccc(S(=O)(=O)N(C)C[C@H]2OCCCC[C@H](C)Oc3ccc(NS(C)(=O)=O)cc3C(=O)N([C@H](C)CO)C[C@@H]2C)cc1`, inactive: 1.03; with `Cn1cnc(S(=O)(=O)N2C[C@H](O)COC[C@H]3O[C@@H](CC(=O)NC4Cc5ccccc5C4)CC[C@@H]32)c1`, inactive: 1. As for `CN(C)c1ccc(O)c2c1C[C@H]1C[C@H]3[C@H](N(C)C)C(=O)[C@@H](C(N)=O)C(=O)[C@@]3(O)C(=O)[C@H]1C2=O`, the relative growth was active: 0.0587.

For the molecule `CCS(=O)(=O)NC[C@@]12COC[C@H]1CN(c1cc(OC)ncn1)C2`, the relative growth was inactive: 0.976. Take `C[C@H](CO)N1C[C@H](C)[C@@H](CN(C)S(=O)(=O)c2ccc(F)cc2)Oc2ccc(NC(=O)Cn3cnnn3)cc2C1=O`: the relative growth is inactive: 0.987. `CC(C)(C)OC(=O)CC[C@@]12N=C(c3ccc(OCCCO)cc3)O[C@@H]1c1ccccc1CN(C(=O)c1ccccc1)C2=O`: the relative growth was inactive: 1.01.

Take `C[C@H](CO)N1C[C@H](C)[C@@H](CN(C)CC2CCCCC2)Oc2c(NC(=O)c3ccc(-c4nccs4)cc3)cccc2C1=O`: the relative growth was inactive: 0.969. With `C[C@@H]1CN([C@H](C)CO)C(=O)c2cccc(NS(=O)(=O)c3cn(C)cn3)c2O[C@H]1CN(C)C(=O)NC1CCCCC1` the figure was inactive: 0.988.

Take `COC(=O)NC(C(=O)NC(Cc1ccccc1)C(O)CN(Cc1ccc(-c2ccccn2)cc1)NC(=O)C(NC(=O)OC)C(C)(C)C)C(C)(C)C.O=S(=O)(O)O` (configuration not stated): the relative growth is inactive: 0.916. For the molecule `COc1ccc(NC(=O)Nc2ccc3c(c2)C(=O)N([C@@H](C)CO)C[C@@H](C)[C@@H](CN(C)Cc2ccc(Cl)c(Cl)c2)OCCCC[C@@H](C)O3)cc1`, the relative growth is inactive: 1.02. The figure for `CO[C@@]1(NC(=O)CSC[C@@H](N)C(=O)O)C(=O)N2C(C(=O)O)=C(CSc3nnnn3C)CS[C@@H]21` is inactive: 1; for `Cc1ccc(OCc2ccc(Cl)cc2)c(C(C)(C)C)c1` it is inactive: 1.04. For `C[C@@H]1CN([C@@H](C)CO)C(=O)c2cccc(NS(=O)(=O)c3ccc(Cl)cc3)c2O[C@@H]1CN(C)Cc1ccc(C(=O)Nc2ccccc2N)cc1`, the relative growth was inactive: 0.986. For `CN1CCN(C(=O)C[C@H]2CC[C@H]3[C@@H](COC[C@H](O)CN3Cc3ccc4c(c3)OCO4)O2)CC1`, the relative growth was inactive: 0.921. For `Cc1noc(C)c1NC(=O)Nc1ccc2c(c1)C(=O)N([C@H](C)CO)C[C@H](C)[C@H](CN(C)Cc1ccc3c(c1)OCO3)OCCCC[C@@H](C)O2`, the relative growth was inactive: 0.98. For the molecule `C[C@H]1CN([C@@H](C)CO)C(=O)Cc2cc(NS(=O)(=O)c3cn(C)cn3)ccc2O[C@H]1CN(C)S(=O)(=O)c1cn(C)cn1`, the relative growth was inactive: 0.96.

These data come from the supplement of paper PMC9446081.
